# In all, about 55,000 compounds went through this assay and about 530 (0.96%) were called active. Inconclusive results, whose numbers are uncertain, are shown with a selection of clear calls. The call rests on the fitted dose curve; in most records, active means well fitted cell-killing curve with a large enough effect; inconclusive means small, poorly fitted or top-dose-only effect; inactive means no such curve, though single readings can be large or run the other way. Where the call is inconclusive, the potency comes from a doubtful curve fit.
# Assay: qHTS Screen for Compounds that Selectively Target Cancer Cells with p53 Mutations: Cytotoxicity of p53 Null Cells at the Nonpermissive Temperature; further: nearly all actives have a fitted effect of over 50% in size;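 on activity, negative = cell killing: 0% = DMSO only and -100% = full killing by 100 µM tamoxifen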
# Conditions: H1299 p53-null (neo) cells, 39C, ATPlite viability, 24 h; activity, negative = cell killing: at 46.1 µM (top of the series)
# How it was run: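 Temperature-shift cytotoxicity format: compound titrations on p53-null or A138V-expressing H1299 cells held 24 hr at 39C, cell ATP then measured, AC50 from Hill model.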
# Potency means the concentration at half of the fitted maximal effect; tags describe the fitted curve by direction and shape.
Structure (SMILES),Potency,"activity, negative = cell killing"
Cn1c(=O)c2c(n3c4ccccc4nc13)NC(=O)CC2c1ccccc1F (centres undefined),"inconclusive: 31.6 µM [cytotoxic, single point]",–
Cc1cc(C)cc(OCC(=O)NCC(c2ccc(Cl)cc2)N2CCCCC2)c1 (centres undefined),"inconclusive: 6.31 µM [cytotoxic, single point]",–
Cc1ccc(Cn2c(=O)n(CCCCC(=O)NCCc3ccc(Cl)cc3)c(=O)c3ccccc32)cc1,"inconclusive: 10 µM [cytotoxic, single point]",–
Cc1ccc(CCNC(=O)CCc2cn(Cc3ccccc3C)c3ccccc23)cc1,"inconclusive: 0.0631 µM [cytotoxic, full curve, poor fit]",–
Cc1ccc(Nc2c3c(nc4nncn24)CCC3)cc1,–,inactive: -5.13%
COc1ccccc1Nc1c2c(nc3ccc(NC(=O)/C=C/c4cccc(OC)c4OC)cc13)CCCC2,"inconclusive: 6.31 µM [cytotoxic, partial curve]",–
CC(C)c1ccc(NC(=O)CSc2ncc3c(n2)-c2ccccc2N(C)S3(=O)=O)cc1,"inconclusive: 2 µM [cytotoxic, full curve, poor fit]",–
Cc1ccc(CNC(=O)Cn2ncc3c(C)n(Cc4ccc(Cl)cc4)c(C)c3c2=O)cc1,"inconclusive: 7.94 µM [cytotoxic, partial curve]",–
Cc1ccc(NC(=O)c2ccc(NC(=O)N3CCSc4ncccc43)cc2)cc1Cl,"inconclusive: 17.8 µM [cytotoxic, single point]",–
O=c1c2cc3c(cc2nc2sc(Nc4ccc(F)cc4F)nn12)OCO3,"inconclusive: 0.01 µM [cytotoxic, full curve, poor fit]",–
CCOc1ccc2nc(N3CCN(C(=O)CS(=O)(=O)c4ccc(F)cc4)CC3)sc2c1,"inconclusive: 11.2 µM [cytotoxic, partial curve, poor fit]",–
O=C(CCS(=O)(=O)c1nc(-c2cccs2)cc(C(F)(F)F)n1)Nc1ccc(OC(F)(F)F)cc1,"inconclusive: 0.0251 µM [cytotoxic, full curve, poor fit]",–
CC(C)(C)c1ccc(Cn2c(Cc3ccccc3)nc3ccccc32)cc1,"inconclusive: 31.6 µM [cytotoxic, single point]",–
O=C(Cn1c(SCc2cccc(F)c2)nc2cccnc21)Nc1ccc(F)c(Cl)c1,"inconclusive: 35.5 µM [cytotoxic, single point]",–
COc1cccc(NC(=O)CSc2nc3ccc(NC(=O)c4cccs4)cc3s2)c1,"inconclusive: 0.005 µM [cytotoxic, full curve]",–
Cc1oc2ccc(O)c(CN(C)Cc3ccccc3)c2c1C(=O)Nc1ccccc1,"inconclusive: 12.6 µM [cytotoxic, single point]",–
COc1ccc(NC(=O)Nc2nnc(C)s2)cc1,–,inactive: -48%
Cc1ccc(-c2nc(SCCOc3ccccc3C)n3[nH]c(=O)cc3n2)cc1,"inconclusive: 15.8 µM [cytotoxic, partial curve]",–
Cc1ccc2c(c1)-c1cc(C)nn1C(c1cc(Br)ccc1O)N2 (centres undefined),"inconclusive: 1.26 µM [cytotoxic, partial curve]",–
O=C(Cc1ccccc1)N(Cc1cccnc1)c1nc2c(F)cc(F)cc2s1,"inconclusive: 28.2 µM [cytotoxic, partial curve, poor fit]",–

Structure (SMILES),Potency,"activity, negative = cell killing"
Cc1cc(NC(=O)CSc2nnc(-c3ccco3)n2Cc2ccccc2)no1,"inconclusive: 15.8 µM [cytotoxic, single point]",–
CCOC(=O)CC(NC(=O)CCc1c(C)nc2c(c(C)nn2-c2ccc(C)c(C)c2)c1C)c1ccc(C)cc1 (centres undefined),"inconclusive: 0.1 µM [cytotoxic, full curve, poor fit]",–
O=C(Nc1ccc(-c2noc(COc3ccccc3Cl)n2)cc1)c1ccco1,"inconclusive: 8.91 µM [cytotoxic, partial curve]",–
COc1ccc(NC(=O)c2ccc(-c3nc(CSc4ccc(C)cc4)c(C)o3)cc2)cc1Cl,–,inactive: -5.28%
COc1ccccc1C(=O)Oc1c(Sc2ccccc2)c(C)nn1C(C)(C)C,active: 12.6 µM,–
Cc1ccc2oc3c(c(=O)c2c1)C(c1ccc(O)cc1)N(Cc1ccc2c(c1)OCO2)C3=O (centres undefined),"inconclusive: 0.631 µM [cytotoxic, full curve, poor fit]",–
CCOc1ccc(C(=O)/C=C/c2cn(CC(O)CN3CCCCCC3)c3ccccc23)cc1 (centres undefined),active: 12.6 µM,–
Cc1cccc(C)c1Nc1c(-c2ccccc2F)nc2cccc(C)n12,"inconclusive: 31.6 µM [cytotoxic, single point]",–
Cc1c(Cl)ccc2sc(N3CCN(C(=O)C(C)C)CC3)nc12,–,inactive: 5.9%
CCOC(=O)c1ccc(N2C(=O)c3n[nH]c(-c4cccs4)c3C2c2ccc(OCC)cc2)cc1 (centres undefined),–,inactive: 70.8%
COc1cccc(OCc2nc3ccccc3n2CCOc2ccc(C)cc2)c1,"inconclusive: 20 µM [cytotoxic, partial curve, poor fit]",–
Cc1ccc(Cn2c(C(=O)O)c(CNCc3ccc(OC(C)C)cc3)c3ccc(C)cc32)cc1,"inconclusive: 35.5 µM [cytotoxic, single point]",–
C/C(=N\NC(=O)c1csc(C)c1C)c1ccco1,"inconclusive: 0.355 µM [cytotoxic, partial curve, poor fit]",–
CCC(Sc1nnc2c(n1)[nH]c1ccccc12)C(=O)Nc1nnc(C(C)C)s1 (centres undefined),"inconclusive: 25.1 µM [cytotoxic, single point]",–
Cc1c2cnn(CC(=O)NCc3ccc(F)cc3)c(=O)c2c(C)n1Cc1cccc(Cl)c1,"inconclusive: 20 µM [cytotoxic, single point]",–
Cn1cc(-c2cc3n(n2)CCC(=O)N3CCCC(=O)NCc2ccc(Cl)cc2)c2ccccc21,"inconclusive: 25.1 µM [cytotoxic, single point]",–
Cc1cccc(C)c1OCCCn1c(CCNC(=O)C2CCCCC2)nc2ccccc21,active: 15.8 µM,–
CCOc1ccc(-c2cc(C(=O)Oc3ccc(C#N)cc3)no2)cc1,"inconclusive: 0.005 µM [cytotoxic, full curve, poor fit]",–
Fc1ccccc1Cc1cn2cc(-c3ccc(Cl)cc3)nc2s1,"inconclusive: 20 µM [cytotoxic, partial curve, poor fit]",–
